According to the RNAGym collection of RNA variant scans (doi:10.7554/elife.90254):
Read counts are not given, so values of variants with three or more changes are uncertain.

B1: LINE1-full (parent)
chain: UACGUAGGUGGUUUUCCCCUGAUAGUGCUAAGGGGGCCUGGAAGUUUGGACUGGGCAGAGCUCAACACAGCGUGGCAAAGUGGCUGUGGCUAGACUGCCUCUCUGGAUUCCUCGUCACUCAGCAGGGCAUCUCUGAGAGAAAUGCC

Variants of: B1
Assay: self-cleavage, relative activity (ratio to wild type); higher = more cleavage; in vitro, sequencing; the parent is a self-cleaving ribozyme

Variant	self-cleavage
UACGUAGGUGGUUUUCCCCUGAUAGUGCUAAGGGGGCCAGGAAGUUUGGACUGGGCGGAACUCAACACCGCGUGGCAAAGUGGCUGUGGCUAGACUGCCUCUCUGGAUUCCUCGUCACACCGCAGGGCAUCUCUGAGAGAAAUGCC [U39A A57G G60A A69C U119A A121C]	0
UACGUAGGUGGUUUUCCCCUGAUAGUGCUAAGGGGGCCAGGAAGUUUGGACUGGGCAGGGCUCAACACUGCGUGGCAAAGUGGCUGUGGUUAGACUGCCUCUCUGGAUUCCUCGUCACUCAGCAGGGCAUCUCUGAGAGAAAUGCC [U39A A59G A69U C90U]	0.05
UACGUAGGUGGUUUUCCCCUGAUAGUGCUAAGGGGGCCAGGAAGUUUGGACUGGGCAGAGCUCGACACAGCGUGGCAAAGUGGCUGUGGCUAGACUGCCUCUCCGGAUUCCUCGUCACUCAGCAGGGCAUCUCUGAGAGAAAUGCC [U39A A64G U104C]	0
UACGUAGGUGGUUUUCCCCUGAUAGUGCUAAGGGGGCCAGGAAGUUUGGACUGGGCAGAGCUCUACACAGCGUGGCAAAGUGGCUGUGGCUAGACUGCCUCUCUGGAUUCCUCGUCACUCAGCAGGGCACCUCUGAGAGAAAUGCC [U39A A64U U130C]	0.43
UACGUAGGUGGUUUUCCCCUGAUAGUGCUAAGGGGGCCAGGAAGUUUGGACUGGGCAGAGCUCACCACAGCGUGGCAAAGUGGCUGUGGCUAGACUGCCUCUCUGGAUCCCUCGUCACUCAGCAGGGCAUCUCUGAGAGAGAUGCC [U39A A65C U109C A141G]	0
UACGUAGGUGGUUUUCCCCUGAUAGUGCUAAGGGGGCCAGGAAGUUUGGACUGGGCAGAGCUCAGCACAGCGUGGCGAAGUGGCUGUGGCAAGACUGCCUCUCUGGAUUCCUCGUCACUCAGCAGGGCAUCUCUGAGAGAGAUGCC [U39A A65G A77G U91A A141G]	0.03
UACGUAGGUGGUUUUCCCCUGAUAGUGCUAAGGGGGCCAGGAAGUUUGGACUGGGCAGAGCUCAUCACAGCGUGGCAAAGUGGCUGUGGCUCGACUGCCUCUCUGGAUUCCUCGUCACUCAGCAGGGCAUCUCUGAGAGAGAUGCC [U39A A65U A92C A141G]	0.12
UACGUAGGUGGUUUUCCCCUGAUAGUGCUAAGGGGGCCAGGAAGUUUGGACUGGGCAGAGCUCAACGCAGCGUGGCAAAGUGGCUGUGGCUAGACUGCCUCUCUGGAUUCCUCGUCACUCAGUAGGGCAUCUCUGAGAGAAAUGCC [U39A A67G C123U]	0.62
UACGUAGGUGGUUUUCCCCUGAUAGUGCUAAGGGGGCCAGGAAGUUUGGACUGGGCAGAGCUCAACUCAGCGUGGCAAAGUGGCUGUGGCUAGACUGCCUCUCUGGAUUCCUCGUCACUCGGCAGGGCAUCUCUGAGAGAAAUGCC [U39A A67U A121G]	0.22
UACGUAGGUGGUUUUCCCCUGAUAGUGCUAAGGGGGCCAGGAAGUUUGGACUGGGCAGAGCUCAACACGGCGUGGCAAAGUGGCUGUGGCUAGACUGCCUCUCUGGAUUCCUCGUCACUCAGCUGGGCAUCUCUGAGAGAAGUGCC [U39A A69G A124U A142G]	1.09
UACGUAGGUGGUUUUCCCCUGAUAGUGCUAAGGGGGCCAGGAAGUUUGGACUGGGCAGAGCUCAACACGGAGUGGCAAAGUGGCUGUGGCUAGACUGCCUCUCUGGAUUCCUCGUCACUCAGCAGGGCAUCUCUGAGAGAAAUGCC [U39A A69G C71A]	0.05
UACGUAGGUGGUUUUCCCCUGAUAGUGCUAAGGGGGCCAGGAAGUUUGGACUGGGCAGAGCUCAACACGGCGUGGCAAAGUGGCUGUGGCUAGACUGCCUCUCUGGAUUCCUCGUCACUCAGCAGGUCAUCCCUGAGAGAAAUGCC [U39A A69G G127U U132C]	0.34
UACGUAGGUGGUUUUCCCCUGAUAGUGCUAAGGGGGCCAGGAAGUUUGGACUGGGCAGAGCUCAACACAGCGUGGCUGAGUGGCUGUGGCUAGACUGCCUCUCUGGAUUCCUCGUCACUCAGCAGGGCAUCUCUGAGAGAAAUGUC [U39A A77U A78G C145U]	0.77
UACGUAGGUGGUUUUCCCCUGAUAGUGCUAAGGGGGCCAGGAAGUUUGGACUGGGCAGAGCUCAACACAGCGUGGCUAAGUGGCUGUGGCUAGACUGCCUCUCCGGAUUCCUCGUCACUCAGCAGGGCAUCUCUGAGAGGAAUGCC [U39A A77U U104C A140G]	1.03
UACGUAGGUGGUUUUCCCCUGAUAGUGCUAAGGGGGCCAGGAAGUUUGGACUGGGCAGAGCUCAACACAGCGUGGCAUAGUGGCUGUGGCUAGACUGCCUCUCUGGAUUCCUCGUCACUCAGCAGGGCAUCUCUGAGAAAAAUGCC [U39A A78U G139A]	2.59
UACGUAGGUGGUUUUCCCCUGAUAGUGCUAAGGGGGCCAGGAAGUUUGGACUGGGCAGAGCUCAACACAGCGUGGCAAAGUGGCUGUGGCUAGGCUGCCUCUCUGGAUUCCUCGUCACUCAGCAGGGCAUCUCUGAGAGAAGUGCC [U39A A94G A142G]	0.17
UACGUAGGUGGUUUUCCCCUGAUAGUGCUAAGGGGGCCAGGAAGUUUGGACUGGGCAGAGCUCAACACAGCGUGGCAAAGUGGCUGUGGCUAGGCAGCCUCUCUGGAUUCCUCGUCACUCAGCAGGGCAUCUCUGAGAGAAAUGCC [U39A A94G U96A]	0.11
UACGUAGGUGGUUUUCCCCUGAUAGUGCUAAGGGGGCCAGGAAGUUUGGACUGGGCAGAGCUCAACACAGCGUGGCAAAGUGGCUGUGGCUAGACUGCCUCUCUGGGUUCCUCGUCACCCAGCAGGGCACCUCUGAGAGAAAUGCC [U39A A107G U119C U130C]	0.4
UACGUAGGUGGUUUUCCCCUGAUAGUGCUAAGGGGGCCAGGAAGUUUGGACUGGGCAGAGCUCAACACAGCGUGGCAAAGUGGCUGUGGCUAGACUGCCUCUCUGGGUUCCUCGUCACUCAGCAGGGCACCUCUGAGAGAAAUGCC [U39A A107G U130C]	1.4
UACGUAGGUGGUUUUCCCCUGAUAGUGCUAAGGGGGCCAGGAAGUUUGGACUGGGCAGAGCUCAACACAGCGUGGCAAAGUGGCUGUGGCUAGACUGCCUCUCUGGAUUCCUCGUCACUCAGCGGGGCACCUCUGAGAGAAAUGCC [U39A A124G U130C]	2.47

Variant	self-cleavage
UACGUAGGUGGUUUUCCCCUGAUAGUGCUAAGGGGGCCAGGAAGUUUGGACUGGGCAGAGCUCAACACAGCGUGGCAAAGUGGCUGUGGCUAGACUGCCUCUCUGGAUUCCUCGUCACUCAGCUGGGCAUCUCGGAGAGAAAUGCC [U39A A124U U134G]	1.75
UACGUAGGUGGUUUUCCCCUGAUAGUGCUAAGGGGGCCAGGAAGUUUGGACUGGGCAGAGCUCAACACAGCGUGGCAAAGUGGCUGUGGCUAGACUGCCUCUCUGGAUUCCUCGUCACUCAGCAGGGCUUCUCUGAGAGAAGUGCC [U39A A129U A142G]	2.51
UACGUAGGUGGUUUUCCCCUGAUAGUGCUAAGGGGGCCAGGAAGUUUGGACUGGGUAGAGCUCAACACAGCGUGGCAUUGUGGCUGUUGCUAGACUGCCUCUCUGGAUUCCUCGUCACUCAGCAGGGCAUCUCUGAGAGAAAUGCC [U39A C56U A78U A79U G88U]	0.04
UACGUAGGUGGUUUUCCCCUGAUAGUGCUAAGGGGGCCAGGAAGUUUGGACUGGGUAGAGCUCAACACAGCGUGGCAAAGUGGCUGUGGCUAGACUGCCUCUCUGGAUUCCUCGUCACUCAGCAGGGCAUCUCUGAGAGAAGUGCC [U39A C56U A142G]	0.33
UACGUAGGUGGUUUUCCCCUGAUAGUGCUAAGGGGGCCAGGAAGUUUGGACUGGGCAGAGCUAAACACAGCGUGGCAAAGUGGCUGUGGCUAGACUGCCCCUCUGGAUUCCUCGUCACUCAGCAGGGCAUCUCUGAGAGAAGUGCC [U39A C63A U100C A142G]	0.07
UACGUAGGUGGUUUUCCCCUGAUAGUGCUAAGGGGGCCAGGAAGUUUGGACUGGGCAGAGCUCAACACAGCGUGGCAAAGUGGCUGUGGUCAGACUGCCUCUCUGGACUCCUCGUCACUCAGCAGGGCAUCUCUGAGAGAAAUGCC [U39A C90U U91C U108C]	0
UACGUAGGUGGUUUUCCCCUGAUAGUGCUAAGGGGGCCAGGAAGUUUGGACUGGGCAGAGCUCAACACAGCGUGGCAAAGUGGCUGUGGCUAGACUGCCUCUCUGGAUUCCUCGUCACUUAGCAGGGCACCUCUGAGAGAAAUGCC [U39A C120U U130C]	1.16
UACGUAGGUGGUUUUCCCCUGAUAGUGCUAAGGGGGCCAGAAGGUUUGGACUGGGCAGAGCUCAACACAGCGUGGCAAAGUGGCUGUGGCUAGACUGCCUCUCUGGAUUCCUCGUCACUCAGCAGGGCAUCUCUGAGAGAAAUGCC [U39A G41A A43G]	1.06
UACGUAGGUGGUUUUCCCCUGAUAGUGCUAAGGGGGCCAGGAAGUUUGUACUGGGCAGAGCUCAACACAGCGUGGCAAAGUGGCUGUGGCUAGACUGCCCCUCUGGAUUCCUCGUCACUCAGCAGGGCAUCUCUGAGAGAAAUGCC [U39A G49U U100C]	1.21
UACGUAGGUGGUUUUCCCCUGAUAGUGCUAAGGGGGCCAGGAAGUUUGGACUGUGCAGAGCUCAACACAGCGUGGCAAAGUGGCUGUGGCUAGACUGCCUCUCUGGAUUCCUCGUCACUCAGCAGGGCAUCUCUGAGGGAAAUGCC [U39A G54U A138G]	0.3
UACGUAGGUGGUUUUCCCCUGAUAGUGCUAAGGGGGCCAGGAAGUUUGGACUGGGCAGAGCUCAACACAGCAUGGCAAUGUGGCUGUGGCUAGACUGCCUCUCUGGAUUCCUCGUCACUCAGCGGGGCAUCUCUGAGAGAAACGCC [U39A G72A A79U A124G U143C]	1.23
UACGUAGGUGGUUUUCCCCUGAUAGUGCUAAGGGGGCCAGGAAGUUUGGACUGGGCAGAGCUCAACACAGCGUGGCAAAGUGGCUAUGGCUAGACUGCCUCUCUGGAUUCCUCGUCACUCAGCAGGGCAUCUCUGAGAGAAAAGCC [U39A G86A U143A]	0.09
UACGUAGGUGGUUUUCCCCUGAUAGUGCUAAGGGGGCCAGGAAGUUUGGACUGGGCAGAGCUCAACACAGCGUGGCAAAGUGGCUGUGGCUAAACUGCCUCUCUGGAUUCCUCGUCACUCAGCAGGGCAUCUCUGAGAGAGAUGCC [U39A G93A A141G]	0.03
UACGUAGGUGGUUUUCCCCUGAUAGUGCUAAGGGGGCCAGGAAGAUUGGACUGGGCAGAGCUCAACACAGCGUGGCAAAGUGGCUGUGGCUAGACUGCCUCCCUGGAUUCCUCAUCACUCAGCGGGGCAUCUCUGAGAGAAAUGCC [U39A U45A U102C G114A A124G]	1.05
UACGUAGGUGGUUUUCCCCUGAUAGUGCUAAGGGGGCCAGGAAGCUUGGACUGGGCGGAGCUCAACACAGCGUGGCAAAGUGGCGGUGGCUAGACUGCCUCACUGGAUUCCUCGUCACUCAGCAGGGCAUCUCUGAGAGAAAUGCC [U39A U45C A57G U85G U102A]	0
UACGUAGGUGGUUUUCCCCUGAUAGUGCUAAGGGGGCCAGGAAGCUUGGACUGGGCAGAGCUUAACACAGCGUGGCAAAGUGGCUGUGGCUAGACUGCCUCUCUGGAUUCCUCGUCACUCAGCAGGGCAUCUCUGAGAGAAAUGCC [U39A U45C C63U]	0.26
UACGUAGGUGGUUUUCCCCUGAUAGUGCUAAGGGGGCCAGGAAGUAUGGACUGGGCAGAGCUCAACGCAGCGUGGCAAAGUGGCUGUGGCUAGACUGCCCCUCUGGUUUCCUCGUCACUCAGCAGGGCAUCUCUGAGAGAAAUGCC [U39A U46A A67G U100C A107U]	0.51
UACGUAGGUGGUUUUCCCCUGAUAGUGCUAAGGGGGCCAGGAAGUAUGGACCGGGCAGAGCUCAACACAGCGUGGCAAAGUGGCUGUGGCUAGACUGCCUCUCUGGAUUCCUCGUCACUCAGCAGGGCAUCUCUGAGAGAAAUGCC [U39A U46A U52C]	1.51
UACGUAGGUGGUUUUCCCCUGAUAGUGCUAAGGGGGCCAGGAAGUCUGGACUGGGCAGAGCCCAACACAGCGUGGCAAAGUGGCUGUGGCUAGACUGCCUCUCUGGAUUCCUCGUCACUCAGCAGGGCAUCUCUGAGAGAAAUGCC [U39A U46C U62C]	0.04
